Laboratory results published in the supplement of paper PMC3334620.
Over roughly 33,000 sequences, “E-score (-0.5 to 0.5)” has its median near -0.035; the highest 2% begin near 0.35. The list shows a part of the results.

Target: T1, Pdr3 (UniProt P33200)
T1 sequence: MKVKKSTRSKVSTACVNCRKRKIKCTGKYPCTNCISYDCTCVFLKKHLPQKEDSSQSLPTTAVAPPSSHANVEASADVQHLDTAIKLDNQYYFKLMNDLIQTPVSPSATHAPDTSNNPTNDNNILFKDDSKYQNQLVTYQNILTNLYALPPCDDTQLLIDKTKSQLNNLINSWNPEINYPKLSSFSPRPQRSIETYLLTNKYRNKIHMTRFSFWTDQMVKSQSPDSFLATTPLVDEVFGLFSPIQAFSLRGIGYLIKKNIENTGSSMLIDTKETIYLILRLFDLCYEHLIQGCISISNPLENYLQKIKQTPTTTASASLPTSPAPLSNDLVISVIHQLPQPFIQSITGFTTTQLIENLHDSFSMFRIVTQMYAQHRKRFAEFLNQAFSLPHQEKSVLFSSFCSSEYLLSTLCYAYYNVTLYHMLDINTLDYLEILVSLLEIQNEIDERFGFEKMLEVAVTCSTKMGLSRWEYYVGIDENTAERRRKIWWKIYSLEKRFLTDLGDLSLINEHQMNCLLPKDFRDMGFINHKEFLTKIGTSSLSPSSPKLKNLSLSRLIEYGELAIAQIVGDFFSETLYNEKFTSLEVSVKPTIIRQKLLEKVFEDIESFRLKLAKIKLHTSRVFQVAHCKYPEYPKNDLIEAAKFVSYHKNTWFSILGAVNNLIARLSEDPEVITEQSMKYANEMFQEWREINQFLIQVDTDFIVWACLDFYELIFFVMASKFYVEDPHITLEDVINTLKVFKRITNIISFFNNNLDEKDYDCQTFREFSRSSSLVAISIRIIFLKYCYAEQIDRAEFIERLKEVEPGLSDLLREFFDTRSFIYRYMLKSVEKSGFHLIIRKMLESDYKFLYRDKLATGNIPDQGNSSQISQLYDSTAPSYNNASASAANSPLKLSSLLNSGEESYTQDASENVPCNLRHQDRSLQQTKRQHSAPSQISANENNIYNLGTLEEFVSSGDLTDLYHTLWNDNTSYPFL
Assay: PBM E-score (8-mer binding enrichment) (E-score (-0.5 to 0.5)); higher = stronger / more preferred TF binding; most listed sequences are background and not binding sites
Conditions: protein concentration: 200 nM; construct: GST-full length
In short: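 Detection of bound protein used fluorescent anti-GST, with scans normalised by masliner. The proteins were GST-tagged yeast transcription factors applied at about 100-200 nM to universal all-10-mer Agilent arrays made double-stranded by primer extension. Each ungapped eight-base word, pooled with its reverse complement, was scored with an E-score from the Universal PBM Analysis Suite.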

| Sequence | PBM E-score |
| --- | --- |
| CGACACAC | 0.0172 |
| CAAAACCG | 0.00937 |
| GATCGAGA | -0.0119 |
| GGACTCGA | 0.133 |
| TACCACGA | -0.113 |
| CGAAGCTC | -0.0418 |
| ATACGGTC | -0.0362 |
| ATTGCGCA | 0.159 |
| ATTGGTTC | 0.088 |
| CTTGGAGC | -0.207 |
| GCACCTCC | 0.0713 |
| CATGGAGC | -0.00894 |
| GCCGTATA | 0.0353 |
| CATCCGAA | 0.282 |
| CGGCCGTC | 0.274 |
| CACTGCCC | 0.102 |
| AGGCGGCG | 0.0493 |
| AAAGCGGA | 0.239 |
| ACCCCCGG | 0.17 |
| GGAACACA | 0.24 |
| AAGAGCGC | -0.0783 |
| CGTTAAAA | -0.201 |
| ACTATCCC | 0.165 |
| CGGGTAAG | -0.0318 |
| GGGACGAC | 0.0046 |

| Sequence | PBM E-score |
| --- | --- |
| AGCGACGA | -0.238 |
| TACCATAA | -0.0916 |
| TACAATAA | -0.135 |
| GTGCCACA | -0.126 |
| ATGTTGCA | -0.27 |
| AAAGGTCA | -0.0357 |
| GGGTAGCA | 0.122 |
| TCACCAGA | -0.255 |
| CCCCGCTA | 0.212 |
| GGTCGTTA | -0.0495 |
| AGAGACCG | 0.00353 |
| GCCCAATA | 0.0382 |
| ATTGTCAC | -0.0348 |
| CCTAACCA | -0.111 |
| AGGACACT | -0.201 |
| ACCGAGCC | 0.102 |
| TACTAGGA | -0.00487 |
| CCAATCGG | 0.0905 |
| CTCATCCA | -0.146 |
| TTGGGAAA | 0.0633 |
| ATCTTACA | -0.0932 |
| CCCGGTAG | 0.187 |
| AGAAAAGC | 0.0469 |
| GACGAGAA | -0.0493 |
| GGCGCACA | 0.207 |

| Sequence | PBM E-score |
| --- | --- |
| CGTAAAGC | -0.301 |
| TAATATCA | -0.167 |
| GCCGACGA | 0.101 |
| ACGTAGAC | -0.225 |
| CGATTCGC | 0.13 |
| ACAGTAGC | -0.138 |
| GATTGCAA | 0.0405 |
| AGATGCGC | 0.0125 |
| CGAACTAC | 0.109 |
| ACTATAAC | -0.144 |
| CTGAGAGC | -0.0543 |
| AGAGGTCC | 0.152 |
| AAATCTTA | -0.171 |
| CTTTCGTC | 0.0215 |
| CTGACATA | -0.251 |
| ACTATTCG | -0.0887 |
| CGGCACTA | 0.244 |
| CCGCATAA | 0.336 |
| CCAAGAAG | -0.141 |
| CTGCGCGA | -0.0594 |
| ATATGTGG | -0.0565 |
| AGACAACT | -0.0312 |
| GCTTCGAA | -0.0532 |
| CGTCATAC | 0.0601 |
| GAGAGAGA | 0.0254 |

| Sequence | PBM E-score |
| --- | --- |
| GCCTTTAA | -0.0677 |
| AATTCGGC | 0.173 |
| TAAGGTAA | -0.00576 |
| GCTGCAGC | 0.171 |
| GCGGATTA | 0.204 |
| CGGGTTAC | 0.192 |
| ACTTTGCT | -0.206 |
| CTTCAGGC | -0.224 |
| GAGGTGTA | -0.13 |
| CAAGGGTG | -0.18 |
| GGAACGAA | 0.294 |
| ACCCCTTA | -0.0682 |
| GTGTAAGA | -0.166 |
| CTACCGTC | 0.00154 |
| CTAGAGAG | -0.354 |
| AACGGATC | 0.367 |
| CGATTAGC | -0.127 |
| ATCATTCA | 0.056 |
| CGCTAGAG | -0.215 |
| GCGACACA | -0.0561 |
| CACCAGTC | -0.265 |
| ATCGTAGG | -0.17 |
| ATATAATG | -0.205 |
| ACTGTGGG | -0.18 |
| AGATTGCA | -0.0569 |

| Sequence | PBM E-score |
| --- | --- |
| CGTAGATA | -0.0634 |
| CCGGGCAA | 0.283 |
| CCCGCGTC | 0.236 |
| GAGTAGCC | -0.153 |
| TCCTTTAA | -0.0542 |
| CGAGTGAC | -0.0966 |
| GGGAGACA | 0.122 |
| AATGTGCC | -0.00603 |
| GCGTTACC | -0.0363 |
| CCGCGAGC | 0.206 |
| GTGTCGCA | -0.131 |
| AATGGGTA | -0.0347 |
| GCCCCTCC | 0.0388 |
| CCTGCATA | -0.123 |
| CCCAGTAC | -0.149 |
| AGGACTTA | -0.19 |
| AACGGTAT | -0.0131 |
| CGCGGATC | 0.431 |
| CGCACAGC | 0.0571 |
| AAGGGGGC | -0.191 |
| AGTGAAGC | -0.0813 |
| GGTAAACA | -0.0588 |
| AGCTGAAC | -0.111 |
| AAATCTGG | 0.0438 |
| AGTTCCCC | 0.0744 |

| Sequence | PBM E-score |
| --- | --- |
| AAGTAAGG | -0.0828 |
| TACTCGAA | -0.149 |
| AAAGCATC | 0.0539 |
| ATGGGGAA | 0.0538 |
| GTGATCAC | -0.00647 |
| AATCGACC | 0.0407 |
| CATCAAAC | 0.0114 |
| GGGTTGGA | 0.115 |
| CAGTGGGA | -0.102 |
| AGTAAGAT | -0.0128 |
| AACTCTCA | -0.206 |
| CTCCTGGC | -0.0304 |
| GACTGGAA | -0.245 |
| CCCACAAA | 0.0858 |
| CTTACGGA | 0.237 |
| CGGAGAAG | 0.28 |
| AAATAGTG | -0.0421 |
| ACCCTGGA | -0.254 |
| AGGGCAGA | -0.308 |
| TCTACCAA | -0.0675 |
| ATCGAGCG | 0.214 |
| CCCTGTCA | -0.221 |
| GGTTGTTA | -0.0774 |
| CGAACCAG | 0.069 |
| AATGCAAT | -0.324 |

| Sequence | PBM E-score |
| --- | --- |
| AATCGGAT | 0.317 |
| CCAGTCGA | -0.05 |
| GGGAACGA | 0.0381 |
| AGTCTTCG | -0.202 |
| GATCTACA | 0.0626 |
| ACAGACCT | 0.072 |
| ACGGTTGA | -0.0694 |
| AGTACCCG | 0.198 |
| AAAATTCA | 0.0718 |
| CAAAGGTC | -0.158 |
| CAAGCTCC | -0.0359 |
| AACTGTGC | -0.154 |
| GTGCACTA | 0.0628 |
| GCTGTCAA | -0.0502 |
| AAGGAAGG | -0.205 |
| TCAGAACA | -0.107 |
| CACTAGTC | -0.0804 |
| CCCACGGG | 0.311 |
| ACCAGTGC | -0.309 |
| AAGTGAGT | -0.109 |
| CGGTAAGA | 0.204 |
| TAAGTATA | 0.0261 |
| ATAGACCA | -0.0783 |
| TCCCCAGA | -0.212 |
| ATCACCGA | 0.0155 |

| Sequence | PBM E-score |
| --- | --- |
| GCGAGTAA | 0.169 |
| CATTGCGC | 0.0238 |
| GGCACCAC | 0.0627 |
| AATTCCCT | -0.207 |
| AACACACC | 0.15 |
| ATATTGCC | -0.0524 |
| ACAAAGTA | -0.0427 |
| AGTACATC | -0.105 |
| AGGCGCCC | -0.0609 |
| CGACAGTA | 0.0677 |
| AGTAATAC | 0.0919 |
| AAAGTAAC | 0.0284 |
| ACCTCTAG | -0.0623 |
| AGTGAATA | -0.00303 |
| GGCGCAAC | 0.102 |
| ACGCCCAA | 0.00636 |
| CGGCTGGA | 0.228 |
| ACGAAGAC | -0.173 |
| CGCTCTGA | 0.0645 |
| CCCCGGTC | 0.137 |
| ACCGTTCG | 0.0291 |
| CATCAGCA | -0.0707 |
| CGTGGCTA | -0.0717 |
| GATCCATC | 0.232 |
| CATTGGGA | -0.109 |

| Sequence | PBM E-score |
| --- | --- |
| AATCAATA | 0.0626 |
| TGCCCCCA | -0.276 |
| CCAGTTGC | -0.176 |
| ATCATTAA | 0.136 |
| ACAGCGAA | -0.03 |
| TGAGAGCA | -0.0205 |
| CCCCTCCG | 0.251 |
| AACCAATA | 0.0232 |
| AAGTGTTG | 0.0656 |
| AACGAACC | 0.0386 |
| TACAGTCA | -0.157 |
| AGTACTCC | 0.151 |
| CGTCAGCA | -0.0948 |
| ACACGGGC | 0.171 |
| AATTTTCT | -0.0164 |
| AACAGTCT | -0.212 |
| GATCTAAC | 0.0861 |
| AATATATG | 0.164 |
| CCCGCCAC | 0.254 |
